# Measured values reported in PubChem BioAssay (NCATS).
# Inconclusive results, whose numbers are uncertain, are shown with a selection of clear calls. Where a call stands in place of a potency, no number is given. For some of these results: Where the call is inconclusive, the potency comes from a doubtful curve fit. Activity calls are given as the source filed them. Unless noted, calls follow the shape of the dose curve; as a rule, active = well fitted curve in the direction sought with a large enough effect; inconclusive = small, poorly fitted or top-dose-only effect, or another doubt; inactive = no such curve, though single readings can be large; an effect the other way counts as inactive or inconclusive.
# Experiments:
# [1] = P-glycoprotein substrates identified in KB-8-5-11 adenocarcinoma cell line, qHTS therapeutic library screen (AID 1346987); also: potency is read from the fitted curve at half-maximal effect; nearly all actives have a fitted effect of over 65% in size
# In short: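 Human cervical adenocarcinoma KB-8-5-11 cells, selected in colchicine to over-express P-gp and assayed without it, were exposed for 72 h to titrated compounds. An ATP-based luminescent viability signal gave AC50.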
# [2] = tested on: Zika virus NS2B-NS3 protease (unlinked complex); test: Primary screen GU Rhodamine qHTS for Zika virus inhibitors: Unlinked NS2B-NS3 protease assay (AID 1347159); also: nearly all actives have a fitted effect of over 60% in size
# In short: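 Enzyme 25 nM in Tris-HCl pH 8.0 + 0.01% Tween 20; compounds up to 114 microM, 15 min RT dark; + Rhod110 substrate 1.5 microM; read t0 and 15 min; delta fluorescence → % inhibition → 4-parameter Hill fit.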
# [3] = target: Cytochrome P450 2C9 (Homo sapiens) (UniProt P11712); test: Cytochrome P450 family 2 subfamily C member 9 (CYP2C9) small molecule antagonists: luciferase biochemical (cell-free) qHTS assay (AID 1645842; active = well fitted curve in the direction sought with a large enough effect in the repeat runs; inconclusive = weak or mixed curves; inactive = no such curve, though single readings can be large; an effect the other way counts as inactive or inconclusive; also: potency is read from the fitted curve at half-maximal effect; nearly all actives have a fitted effect of over 55% in size)
# Chain of UniProt P11712 (P11712 whole entry, looked up): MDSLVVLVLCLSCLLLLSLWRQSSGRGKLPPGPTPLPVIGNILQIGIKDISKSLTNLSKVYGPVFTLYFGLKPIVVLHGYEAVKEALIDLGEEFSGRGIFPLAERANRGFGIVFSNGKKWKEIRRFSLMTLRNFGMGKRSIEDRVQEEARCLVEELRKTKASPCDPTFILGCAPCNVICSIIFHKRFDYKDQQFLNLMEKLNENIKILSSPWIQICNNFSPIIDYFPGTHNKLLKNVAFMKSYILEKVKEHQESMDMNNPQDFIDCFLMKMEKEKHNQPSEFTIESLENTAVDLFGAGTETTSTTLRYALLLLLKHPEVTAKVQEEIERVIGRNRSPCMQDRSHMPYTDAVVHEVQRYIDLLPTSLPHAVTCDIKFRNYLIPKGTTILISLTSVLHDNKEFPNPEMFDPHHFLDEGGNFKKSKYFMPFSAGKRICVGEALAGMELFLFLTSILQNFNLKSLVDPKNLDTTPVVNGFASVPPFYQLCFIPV
# In short: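 P450-Glo CYP2C9 system: proluciferin substrate with enzyme in mix containing 0.4% BSA, 10 min at room temperature, then NADPH regeneration solution added and incubated 1 h at 37C. Detection reagent stopped reaction; luminescence read after 20 min as RLU.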
# [4] = Primary fluorescence-based thiol-reactive (MSTI) qHTS assay for identification of artifact compounds. (AID 1845221);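 also: thiol-reactive compounds lower the probe fluorescence signal; nearly all actives have a fitted effect of over 65% in size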
# In short: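 Reactivity toward the thiol probe MSTI (4 uM) is scored by fluorescence at Ex/Em 525/598 nm after 1 h at room temperature. Acetyl-MSTI and MSTI define the activity scale.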
# HEK293 = test: Cytotoxic Profiling of Annotated Libraries Using Quantitative High-Throughput Screening (AID 1296008); conditions: Five cell lines viability, CellTiter-Glo ATP luminescence, 48-72 h; max response: stronger effect = lower value; also: potency is read from the fitted curve at half-maximal effect; nearly all actives have a fitted effect of over 60% in size
# In short: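 Cells exposed to compounds for 48 or 72 hr at 37 degrees Celsius. Viability read as ATP-coupled luminescence with CellTiter-Glo after 10 min at room temperature.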
# Es-2 = test: Primary qHTS to identify gynecologic anti-cancer compounds using libraries of approved drugs and bioactive compounds (AID 1345084); conditions: Gynecologic cancer cell panel viability, ATPlite luminescence, 48 h; series mostly up to 57.5 µM; also: nearly all actives have a fitted effect of over 55% in size
# In short: (§1)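 Measured: luminescence after ATPlite addition (15 min, RT). Exposure: 48 h, 37 C, 5% CO2.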
# Tov112D = test: as above; conditions: Gynecologic cancer cell panel viability, ATPlite luminescence, 48 h; series mostly up to 57.5 µM
# In short: as §1
# Tags tell the direction and shape of the fitted curve.
smiles,measurement,setting,value
Cc1ccc(C2(C(=O)N3CCC(n4nc(-c5ccccc5)oc4=O)CC3)CC2)cc1,Potency,[1],"inconclusive: 2.06 µM [inhibitor, full curve]"
same,Potency,[2],inactive
same,Potency,[3],active: 0.756 µM
same,Potency,[4],inactive
same,Potency,HEK293,"inconclusive: 29.1 µM [inhibitor, single point]"
same,Potency,Es-2,inactive
same,Potency,Tov112D,inactive
